Laboratory results taken from publication PMC2666743.
Results are given in words; binding and its absence hold for the method and conditions named. For some assays here: Binding seen in cells or lysates may run through a third protein. Some results given as binding are weak or reduced against the parent protein; the word gives no strength. Sequences can lack the tags named with a protein. Each block holds one molecule with its values, some of them ahead of it.

By UniProt entry, the sequences of proteins in these tests, tags left out.
UniProt P60953: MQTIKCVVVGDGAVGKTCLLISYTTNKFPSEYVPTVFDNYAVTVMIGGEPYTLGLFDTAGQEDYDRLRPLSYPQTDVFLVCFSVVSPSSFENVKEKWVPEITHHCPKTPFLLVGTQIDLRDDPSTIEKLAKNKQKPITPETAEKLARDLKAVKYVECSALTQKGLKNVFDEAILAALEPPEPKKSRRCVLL

What was measured:
[1] = target: T1, GST-CPD C (C-terminal aa 111–343 of Cupidin) (mouse) (UniProt Q9QWW1); assay: condition: only in the presence of [35S]-GDPβS instead of [35S]-GTPγS; far-Western, overlay or dot blot; as the Cdc42 ligand overlay, but in the presence of [35S]-GDPβS and Cdc42; both purified
T1 sequence: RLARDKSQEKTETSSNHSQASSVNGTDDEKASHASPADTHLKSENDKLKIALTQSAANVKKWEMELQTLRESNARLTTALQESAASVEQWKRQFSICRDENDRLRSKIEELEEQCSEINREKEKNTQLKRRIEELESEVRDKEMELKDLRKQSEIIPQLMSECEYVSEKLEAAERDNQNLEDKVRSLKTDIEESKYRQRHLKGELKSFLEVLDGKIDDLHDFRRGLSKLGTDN

GST-CPD 151–343 (mouse) = target: T2, GST-CPD 151–343 (mouse) (UniProt Q9QWW1); assay: far-Western, overlay or dot blot; 1 μg of GST-fused Cupidin constructs separated by 10% SDS-PAGE, blotted onto nitrocellulose, re-natured, probed with GST-Cdc42 loaded with [35S]-GTPγS; radioactivity read with a BAS2000 analyzer; both purified
T2 sequence: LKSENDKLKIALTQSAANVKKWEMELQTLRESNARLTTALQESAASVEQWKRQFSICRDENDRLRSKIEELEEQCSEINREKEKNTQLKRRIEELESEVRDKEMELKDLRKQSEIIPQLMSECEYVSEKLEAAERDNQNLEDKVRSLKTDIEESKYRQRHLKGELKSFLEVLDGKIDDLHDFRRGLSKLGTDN

GST-CPD 191–230 (mouse) = target: T3, GST-CPD 191–230 (mouse) (UniProt Q9QWW1); assay: as above
T3 sequence: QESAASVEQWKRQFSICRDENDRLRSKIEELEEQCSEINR

GST-CPD 191–283 (mouse) = target: T4, GST-CPD 191–283 (mouse) (UniProt Q9QWW1); assay: as above
T4 sequence: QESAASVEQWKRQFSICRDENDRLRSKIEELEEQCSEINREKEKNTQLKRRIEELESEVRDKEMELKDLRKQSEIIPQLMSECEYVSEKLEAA

GST-CPD 191–343 (mouse) = target: T5, GST-CPD 191–343 (mouse) (UniProt Q9QWW1); assay: as above
T5 sequence: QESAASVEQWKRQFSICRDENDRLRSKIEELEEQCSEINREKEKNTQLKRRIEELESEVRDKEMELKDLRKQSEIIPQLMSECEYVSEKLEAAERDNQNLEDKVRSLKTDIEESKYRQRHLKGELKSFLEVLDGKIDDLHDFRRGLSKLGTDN

GST-CPD 231–283 (mouse) = target: T6, GST-CPD 231–283 (mouse) (UniProt Q9QWW1); assay: as above
T6 sequence: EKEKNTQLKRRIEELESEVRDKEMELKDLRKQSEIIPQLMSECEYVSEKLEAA

GST-CPD 231–343 (mouse) = target: T7, GST-CPD 231–343 (mouse) (UniProt Q9QWW1); assay: as above
T7 sequence: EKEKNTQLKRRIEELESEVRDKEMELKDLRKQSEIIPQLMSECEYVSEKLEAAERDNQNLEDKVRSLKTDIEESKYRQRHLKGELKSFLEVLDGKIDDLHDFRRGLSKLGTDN

GST-CPD 284–343 (mouse) = target: T8, GST-CPD 284–343 (mouse) (UniProt Q9QWW1); assay: as above
T8 sequence: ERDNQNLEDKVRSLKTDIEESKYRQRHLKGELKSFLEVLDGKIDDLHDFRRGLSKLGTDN

[2] = target: T1, GST-CPD C (C-terminal aa 111–343 of Cupidin) (mouse); assay: as above
[3] = target: T9, GST-CPD N (N-terminal aa 1–110 of Cupidin) (mouse) (UniProt Q9QWW1); assay: as above
T9 sequence: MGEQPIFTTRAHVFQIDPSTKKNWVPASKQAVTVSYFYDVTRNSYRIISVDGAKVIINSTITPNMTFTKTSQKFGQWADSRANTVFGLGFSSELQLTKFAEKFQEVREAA

[4] = target: T10, GST-CPDΔ191–230 (Cupidin with a deletion of aa 191–230) (mouse) (UniProt Q9QWW1); assay: as above
T10 sequence: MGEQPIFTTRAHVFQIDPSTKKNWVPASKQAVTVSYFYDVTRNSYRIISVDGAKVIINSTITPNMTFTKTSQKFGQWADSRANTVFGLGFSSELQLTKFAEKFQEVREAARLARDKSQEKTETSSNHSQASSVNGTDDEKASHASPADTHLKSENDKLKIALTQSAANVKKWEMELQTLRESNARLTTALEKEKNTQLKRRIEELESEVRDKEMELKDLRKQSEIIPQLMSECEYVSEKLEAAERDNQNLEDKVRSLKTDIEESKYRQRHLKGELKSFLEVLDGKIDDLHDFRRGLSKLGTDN

[5] = target: T11, GST-CPDΔ191–283 (Cupidin with a deletion of aa 191–283) (mouse) (UniProt Q9QWW1); assay: as above
T11 sequence: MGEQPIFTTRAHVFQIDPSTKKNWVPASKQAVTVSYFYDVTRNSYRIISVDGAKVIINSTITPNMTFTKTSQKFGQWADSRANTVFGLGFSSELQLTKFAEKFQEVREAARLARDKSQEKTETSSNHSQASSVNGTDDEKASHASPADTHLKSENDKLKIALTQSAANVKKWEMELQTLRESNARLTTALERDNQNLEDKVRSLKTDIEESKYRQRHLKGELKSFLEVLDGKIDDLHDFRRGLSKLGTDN

[6] = target: T12, GST-CPDΔ231–283 (Cupidin with a deletion of aa 231–283) (mouse) (UniProt Q9QWW1); assay: as above
T12 sequence: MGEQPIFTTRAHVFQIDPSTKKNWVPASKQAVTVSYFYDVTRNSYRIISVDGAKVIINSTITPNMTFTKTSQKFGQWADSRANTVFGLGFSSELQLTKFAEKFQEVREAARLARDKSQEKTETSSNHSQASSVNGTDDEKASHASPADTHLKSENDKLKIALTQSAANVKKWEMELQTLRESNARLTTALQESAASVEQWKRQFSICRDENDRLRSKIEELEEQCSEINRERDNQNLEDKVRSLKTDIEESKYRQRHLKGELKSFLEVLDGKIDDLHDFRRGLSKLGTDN

[7] = target: T13, GST-fused Cupidinα/Homer2a (GST-CPD) (mouse) (UniProt Q9QWW1); assay: as above
T13 sequence: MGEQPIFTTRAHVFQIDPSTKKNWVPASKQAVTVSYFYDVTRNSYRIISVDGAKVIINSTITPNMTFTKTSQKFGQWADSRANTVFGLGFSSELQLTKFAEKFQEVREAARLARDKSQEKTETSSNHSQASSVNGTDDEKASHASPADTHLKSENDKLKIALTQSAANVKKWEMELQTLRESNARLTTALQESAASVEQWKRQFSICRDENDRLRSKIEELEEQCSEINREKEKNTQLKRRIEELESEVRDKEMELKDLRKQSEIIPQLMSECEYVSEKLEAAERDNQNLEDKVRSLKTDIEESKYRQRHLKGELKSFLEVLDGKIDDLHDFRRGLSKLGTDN

[8] = target: T14, GST-fused mouse Drebrin A C-terminal region (Drebrin-C WT, aa 579-706) (mouse) (UniProt Q9QXS6); assay: far-Western, overlay or dot blot; GST-Drebrin-C WT or mutant electrophoresed and transferred to nitrocellulose, overlaid with GST-CPD protein extracts; detected with anti-Cupidin (CPD C) antibody
T14 sequence: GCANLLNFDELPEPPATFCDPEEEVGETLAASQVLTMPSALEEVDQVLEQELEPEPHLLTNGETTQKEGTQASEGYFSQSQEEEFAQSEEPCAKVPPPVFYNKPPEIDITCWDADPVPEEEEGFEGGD

[9] = target: T15, GST-fused mouse Drebrin A C-terminal region, double mutant (Drebrin-C mutant with P593A and P675A) (mouse) (UniProt Q9QXS6); assay: as above
T15 sequence: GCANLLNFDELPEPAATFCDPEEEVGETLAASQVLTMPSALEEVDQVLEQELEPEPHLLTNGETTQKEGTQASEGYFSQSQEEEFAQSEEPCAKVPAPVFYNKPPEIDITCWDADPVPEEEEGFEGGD

[10] = target: Cupidin (CPD), Flag-tagged and GFP-tagged copies co-expressed in COS7 cells (mouse) (UniProt Q9QWW1); assay: co-IP; COS7 cells triple-transfected with Flag-tagged and GFP-tagged copies and myc-Cdc42V12 or myc-Cdc42N17; 1% Triton X-100 lysate; IP with anti-Flag antibody, blot with anti-CPD antibody

binding [1]: no binding
binding (GST-CPD 151–343 (mouse)): binds
binding (GST-CPD 191–230 (mouse)): no binding
binding (GST-CPD 191–283 (mouse)): binds
binding (GST-CPD 191–343 (mouse)): binds
binding (GST-CPD 231–283 (mouse)): no binding
binding (GST-CPD 231–343 (mouse)): binds weakly
binding (GST-CPD 284–343 (mouse)): no binding
binding [2]: binds
binding [3]: no binding
binding [4]: binds
binding [5]: no binding
binding [6]: no binding
binding [7]: binds
Molecule: GST-fused Cdc42 small GTPase (from UniProt P60953 1-191) (enzyme)

binding [8]: binds
binding [9]: no binding
B1: GST-fused Cupidinα/Homer2a (GST-CPD) (protein, UniProt Q9QWW1-2 1-343)
chain: MGEQPIFTTRAHVFQIDPSTKKNWVPASKQAVTVSYFYDVTRNSYRIISVDGAKVIINSTITPNMTFTKTSQKFGQWADSRANTVFGLGFSSELQLTKFAEKFQEVREAARLARDKSQEKTETSSNHSQASSVNGTDDEKASHASPADTHLKSENDKLKIALTQSAANVKKWEMELQTLRESNARLTTALQESAASVEQWKRQFSICRDENDRLRSKIEELEEQCSEINREKEKNTQLKRRIEELESEVRDKEMELKDLRKQSEIIPQLMSECEYVSEKLEAAERDNQNLEDKVRSLKTDIEESKYRQRHLKGELKSFLEVLDGKIDDLHDFRRGLSKLGTDN

binding [10]: binds
B2: Cupidin (CPD), Flag-tagged and GFP-tagged copies co-expressed in COS7 cells (protein, UniProt Q9QWW1-2 1-343)
chain: MGEQPIFTTRAHVFQIDPSTKKNWVPASKQAVTVSYFYDVTRNSYRIISVDGAKVIINSTITPNMTFTKTSQKFGQWADSRANTVFGLGFSSELQLTKFAEKFQEVREAARLARDKSQEKTETSSNHSQASSVNGTDDEKASHASPADTHLKSENDKLKIALTQSAANVKKWEMELQTLRESNARLTTALQESAASVEQWKRQFSICRDENDRLRSKIEELEEQCSEINREKEKNTQLKRRIEELESEVRDKEMELKDLRKQSEIIPQLMSECEYVSEKLEAAERDNQNLEDKVRSLKTDIEESKYRQRHLKGELKSFLEVLDGKIDDLHDFRRGLSKLGTDN
